# Results taken from paper PMC10229743.
# Sequences of proteins named here, by UniProt entry; tags and fusion partners are left off. A change or cut given only in a name is not applied to a line headed by its entry. A line that says so, or that is headed by a name, gives the form on record, which may keep a tag or linker. Residues count along the entry.
# UniProt P19474: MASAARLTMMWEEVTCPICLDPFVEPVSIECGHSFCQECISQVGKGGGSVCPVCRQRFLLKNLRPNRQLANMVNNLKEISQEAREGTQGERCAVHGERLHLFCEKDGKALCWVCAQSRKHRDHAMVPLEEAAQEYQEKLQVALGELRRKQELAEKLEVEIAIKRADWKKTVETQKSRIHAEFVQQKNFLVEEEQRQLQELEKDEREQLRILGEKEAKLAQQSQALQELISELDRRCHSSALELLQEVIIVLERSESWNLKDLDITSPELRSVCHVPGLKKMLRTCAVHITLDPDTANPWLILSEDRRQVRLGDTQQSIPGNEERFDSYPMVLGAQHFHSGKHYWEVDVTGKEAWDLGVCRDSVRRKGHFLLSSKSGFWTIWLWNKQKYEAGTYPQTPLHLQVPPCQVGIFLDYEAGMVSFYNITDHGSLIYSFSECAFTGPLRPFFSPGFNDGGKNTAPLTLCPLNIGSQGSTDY
# His-TRIM21 deletion mutant lacking residues 12-55 located in the RING domain (His-RING^Δ) (P19474, form named): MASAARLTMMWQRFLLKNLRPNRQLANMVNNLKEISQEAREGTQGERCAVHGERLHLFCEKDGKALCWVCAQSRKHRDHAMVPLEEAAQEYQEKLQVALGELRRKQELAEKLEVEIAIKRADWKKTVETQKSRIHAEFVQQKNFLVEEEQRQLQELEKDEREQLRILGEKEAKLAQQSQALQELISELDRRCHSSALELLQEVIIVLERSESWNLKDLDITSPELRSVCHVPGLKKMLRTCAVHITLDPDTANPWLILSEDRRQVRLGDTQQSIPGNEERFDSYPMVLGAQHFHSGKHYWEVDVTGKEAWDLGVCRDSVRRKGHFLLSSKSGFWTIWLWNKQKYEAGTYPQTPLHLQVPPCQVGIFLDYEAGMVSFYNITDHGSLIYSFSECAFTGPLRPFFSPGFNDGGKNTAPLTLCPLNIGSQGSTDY
# His-TRIM21 deletion mutant lacking residues 286-465 located in the SPRY domain (His-SPRY^Δ) (P19474, form named): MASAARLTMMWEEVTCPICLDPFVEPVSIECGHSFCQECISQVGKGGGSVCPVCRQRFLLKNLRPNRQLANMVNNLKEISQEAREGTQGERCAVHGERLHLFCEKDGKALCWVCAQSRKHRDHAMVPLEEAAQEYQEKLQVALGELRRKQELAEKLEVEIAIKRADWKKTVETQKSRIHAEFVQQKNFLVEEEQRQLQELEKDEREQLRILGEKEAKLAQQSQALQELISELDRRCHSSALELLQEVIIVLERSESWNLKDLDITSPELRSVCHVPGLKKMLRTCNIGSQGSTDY
# These are yes or no findings as the source states them, for the method shown. Binding seen in cells or lysates may run through a third protein. Some results given as binding are weak or reduced against the parent protein; the word gives no strength.
# T1: tripartite motif-containing protein 21 (TRIM21), endogenous in mouse primary hepatocytes (mouse (endogenous in primary hepatocytes)) (UniProt Q62191)
# T1 sequence: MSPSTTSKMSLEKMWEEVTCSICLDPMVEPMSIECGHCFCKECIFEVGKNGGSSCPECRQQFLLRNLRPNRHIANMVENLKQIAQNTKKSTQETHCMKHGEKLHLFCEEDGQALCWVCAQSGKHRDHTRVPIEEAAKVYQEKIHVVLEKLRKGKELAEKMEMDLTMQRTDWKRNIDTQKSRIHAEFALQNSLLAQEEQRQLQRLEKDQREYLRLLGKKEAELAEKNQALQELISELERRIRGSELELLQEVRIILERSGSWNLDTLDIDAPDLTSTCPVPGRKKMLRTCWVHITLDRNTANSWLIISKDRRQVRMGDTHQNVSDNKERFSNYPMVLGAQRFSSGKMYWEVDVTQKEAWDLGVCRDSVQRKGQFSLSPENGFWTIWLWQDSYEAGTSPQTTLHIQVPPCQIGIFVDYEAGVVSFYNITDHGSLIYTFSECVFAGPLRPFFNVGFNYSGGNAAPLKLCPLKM
# B1: phosphoenolpyruvate carboxykinase-1 (PEPCK1), endogenous in mouse primary hepatocytes (protein, UniProt Q9Z2V4 1-622)
# chain: MPPQLHNGLDFSAKVIQGSLDSLPQAVRKFVEGNAQLCQPEYIHICDGSEEEYGQLLAHMQEEGVIRKLKKYDNCWLALTDPRDVARIESKTVIITQEQRDTVPIPKTGLSQLGRWMSEEDFEKAFNARFPGCMKGRTMYVIPFSMGPLGSPLAKIGIELTDSPYVVASMRIMTRMGISVLEALGDGEFIKCLHSVGCPLPLKKPLVNNWACNPELTLIAHLPDRREIISFGSGYGGNSLLGKKCFALRIASRLAKEEGWLAEHMLILGITNPEGKKKYLAAAFPSACGKTNLAMMNPSLPGWKVECVGDDIAWMKFDAQGNLRAINPENGFFGVAPGTSVKTNPNAIKTIQKNTIFTNVAETSDGGVYWEGIDEPLAPGVTITSWKNKEWRPQDAEPCAHPNSRFCTPASQCPIIDPAWESPEGVPIEGIIFGGRRPEGVPLVYEALSWQHGVFVGAAMRSEATAAAEHKGKIIMHDPFAMRPFFGYNFGKYLAHWLSMAHRPAAKLPKIFHVNWFRKDKDGKFLWPGFGENSRVLEWMFGRIEGEDSAKLTPIGYIPKENALNLKGLGGVNVEELFGISKEFWEKEVEEIDRYLEDQVNTDLPYEIERELRALKQRISQM
# Key:
# [1] = biological target: T1, tripartite motif-containing protein 21 (TRIM21), endogenous in mouse primary hepatocytes (mouse (endogenous in primary hepatocytes)); test: co-IP; endogenous proteins in mouse primary hepatocyte lysate; IP with anti-TRIM21, anti-PEPCK1 or anti-FASN antibody or control IgG, protein A/G agarose, overnight; immunoblot
# [2] = biological target: His-TRIM21 deletion mutant lacking residues 12-55 located in the RING domain (His-RING^Δ) (UniProt P19474); test: co-IP; mouse primary hepatocytes transfected with TRIM21 WT, His-RING^Δ or His-SPRY^Δ plasmids for 48 h, MG132 (10 μmol/L) for 4 h before lysis; His-tag immunoprecipitated; blot for FASN, PEPCK1 and His-tag
# [3] = biological target: His-TRIM21 deletion mutant lacking residues 286-465 located in the SPRY domain (His-SPRY^Δ) (UniProt P19474); test: as above
# [4] = biological target: TRIM21 WT (wild type), plasmid-expressed (UniProt P19474); test: as above
binder,measurement,setting,value
B1,binding,[1],binds
same,binding,[2],no binding
same,binding,[3],binds
same,binding,[4],binds
